Measured values reported in a collection of fitness landscapes (doi:10.1016/j.celrep.2020.107928).
The full ranking holds about 81,000 sequences; the median of “one-hybrid fitness for binding NBS DNA” is about -0.1, and the highest 2% start at about 0.36. The list shows a part of the results.

B1: Caulobacter ParB omega fusion; a variant is named by its letters at X, in order, B8GW30 (parent)
chain: MESVVVGEPGMSEGRRGLGRGLSALLGEVDAAPAQAPGEQLGGSREAPIEILQRNPDQPRRTFREEDLEDLSNSIREKGVLQPILVRPSPDTAGEYQIVAGERAWRAAQRAGLKTVPIMVRELDDLAVLEIGIIENVQRADLNVLEEALSYKVLMEKFERTQENIAQTIGKSXSHVANXMRLLXLPDEVQSYLVSGELTAXHARAIAAAADPVALAKQIIEGGLSVRETEALARKAPNLSAGKSKGGRPPRVKDTDTQALESDLSSVLGLDVSIDHRGSTGTLTITYATLEQLDDLCNRLTRGI

Variants of: B1
Test: one-hybrid fitness for binding NBS DNA (the Noc-binding site; scaled: cognate 1, non-cognate 0); higher = stronger binding
Conditions: with NBS DNA site
How it was run: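 On M9-minus-histidine containing 0.1 mM IPTG and 5 mM 3-AT, E. coli USO cells with a HIS3 reporter, site 19 bp from the promoter, grew 48 hours at 37°C to select Caulobacter ParB libraries randomised at four specificity codons. Plasmids from before and after were Illumina-sequenced, with three replicate libraries pooled and variants under 10 reads left out. Fitness is the log change in variant-to-wild-type read ratio, rescaled against cognate and non-cognate.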

one-hybrid fitness for binding NBS DNA, 0.448:
QTDT

one-hybrid fitness for binding NBS DNA, 0.379:
QHVR

one-hybrid fitness for binding NBS DNA, 0.446:
RHTS

one-hybrid fitness for binding NBS DNA, 0.429:
QSHT

one-hybrid fitness for binding NBS DNA, 0.218:
RKGC

one-hybrid fitness for binding NBS DNA, 0.731:
QRLT

one-hybrid fitness for binding NBS DNA, 0.656:
QTMR

one-hybrid fitness for binding NBS DNA, 0.201:
AHKR

one-hybrid fitness for binding NBS DNA, 0.229:
QRSL

one-hybrid fitness for binding NBS DNA, 0.253:
RMIT

one-hybrid fitness for binding NBS DNA, 0.298:
QRLG

one-hybrid fitness for binding NBS DNA, 0.295:
QKTA

one-hybrid fitness for binding NBS DNA, 0.245:
FAKR

one-hybrid fitness for binding NBS DNA, 0.265:
RARY

one-hybrid fitness for binding NBS DNA, 0.257:
HNMG

one-hybrid fitness for binding NBS DNA, 0.433:
RSTS

one-hybrid fitness for binding NBS DNA, 0.511:
QAAR

one-hybrid fitness for binding NBS DNA, ≤ 0.2:
MDFK
AHLM
QGAC
EGFG
AQNV
TMVL
KKTS
RYKE
QEKE
LQQS
QATP
NCYL
GADT
IFPE
ANYS
LDAL
QVRG
AMNH
RGHW
EMFG
DLSA
WRWT
RMPG
QWPA
GTYG
VGVT
EKMM
HVYC
HPKS
HSAW
FAKD
LKAA
CALA
NRND
MPRL
SCFR
HPGW
HSNL
HKSR
LARN
AKTT
KTLG
TLFR
VHLC
ARRC
RSHY
SLYD
FTTE
ISQM
ERPL
RSLV
SMYC
VSSC
LGTW
TPRP
DCVT
FTTS
TVVV
DYRM
TSFW
MDHG
MANV
SEGS
FRLP
TSMM
VECG
RPCK
HHAW
AIVV
IAQS
RTDP
QFEV
EILS
AFNR
MLTD
NIAR
HYPC
KLAN
SMGH
AVAP
AWGV
DQMR
PYVF
PTFF
KDVA
MQDR
HSKM
GDIS
EYAG
RWYR
PPTF
RVGD
PCRE
SKGR
YSRA
ICAY
HQPT
KLKK
SVWS
SRHH
NSLL
KKTG
HVTF
PHLE
EDEN
ARVI
DRGF
TQWG
SRNW
IDQT
RQFN
RPPV
PSKN
QFST
RMYK
DCTT
LMHI
SFCG
PGLH
ATIY
IKEC
GASA
AASL
HTCI
RKLC
TDLV
RCQL
MYNS
GYAY
LKVR
SPKQ
VHRY
NLQD
TCTA
NAVS
RLYI
CFMS
RLTY
YIRW
EDST
YPGR
ETHH
PRVW
EILP
RFIT
RDAP
PMPY
ESLK
RDQQ
VTKV
TVTK
QFPG
HSSI
VGTT
CGAI
WLQG
WQLK
FRRV
KPHQ
TSHP
EPGR
CPRY
IMVT
MRVV
VRYV
NRAA
ESKF
YQTR
RWSS
RESK
CEIK
NSTG
AQPA
EHTS
VRKW
GFNT
WGNR
TLRH
HTQF
FCNG
PAAE
ILTP
WLRG
GDPS
VRGW
YMPN
IPVR
CWLY
FTTI
WSSF
PPTP
MIDS
LKPH
AEEG
CADR
PSDW
THSW
IVKE
SLNK
HSHI
DVLN
SQPA
PPKA
KWVS
PVEL
VRSF
WIWS
SAGT
AVCG
CEPT
THLW
GSLG
GESS
QHYG
LGHW
LFDT
MMRE
RYKD
TAGF
CQDG
HNVR
RRLL
GWLY
GPSD
CIVR
FWKT
PDWG
RAIS
TSEM
FLLC
LLYL
GKMC
LCSC
DAKS
HRYH
ARAY
CYKM
WFKL
PEMT
ADAA
TSPT
TSKN
FMPT
FPDT
QTMP
FPRR
EVTL
ADER
EACG
RLSG
VYTL
GECK
VGTE
TTDD
CRFE
MRHL
KMCF
WPLR
STFL
PVDS
GAYC
QNSW
WSTV
HYHG
TLSQ
RKWL
MFAA
LDRS
QAAG
VPNT
HWQR
FQRR
RPMP
FSCR
IEPS
RCPK
SHGR
MTSV
ASRF
AQSL
LMEM
QCDE
APSF
TDYF
PDSA
CCSL

one-hybrid fitness for binding NBS DNA, 0.405:
QMYS

one-hybrid fitness for binding NBS DNA, 0.426:
RYGS

one-hybrid fitness for binding NBS DNA, 0.648:
QTHT
